Measurements taken from PubChem BioAssay AID624296 (National Center for Advancing Translational Sciences (NCATS), 2012).
“And” between values parts separate entries of the source, which are not always exact repeats. Identical values can stand only once. Among all 350,000 compounds or so, about 9,900 (2.8%) were called active. Inconclusive means that the source gave no clear call. Such entries were picked first, then a sample of the others. Calls come from the whole dose curve; as a rule, active = well fitted activation curve with a large enough effect; inconclusive = small, poorly fitted or top-dose-only effect; inactive = no such curve, though single readings can be large or run the other way. Where the call is inconclusive, the potency comes from a doubtful curve fit. A structure can be active in one record and inactive in another.

assay: A quantitative high throughput screen for small molecules that induce DNA re-replication in MCF 10a normal breast cells.; note: nearly all actives have a fitted effect of over 50% in size; for activity, positive = re-replication: % of control where 0% means no effect; conditions: MCF 10A DNA re-replication, Hoechst nuclear intensity, 48 h; activity, positive = re-replication: at 46.1 µM (top of the series)
Potency is the fitted concentration of half-maximal effect; tags give direction and shape of the fitted curve.

Q: Which Potency does the source give for CC1=CC(C)C2(CO)COC(c3ccc(O)cc3)C1C2C (centres undefined) here?
A: inconclusive: 29.1 µM [activator, single point]

Q: With CN(c1ccccc1)S(=O)(=O)c1ccc(C(=O)Nc2nnc(-c3ccc(F)cc3)o2)cc1 as the compound, how does the Potency read?
A: inconclusive: 1.58 µM [activator, partial curve]

Q: Which Potency does the source give for Cc1cc(C(=O)NNC(=O)c2nn(C)c(=O)c3ccccc23)c(C)o1 here?
A: inconclusive: 6.51 µM [activator, single point]

Q: Which Potency does the source give for COc1cccc(CN(C)C(=O)c2cc(COc3ccc4ncccc4c3)on2)c1 here?
A: inconclusive: 29.1 µM [activator, partial curve, poor fit]

Q: With Nc1cc(S(=O)(=O)N2CCCCC2)ccc1Oc1ccc(Cl)cc1 as the compound, how does the Potency read?
A: inconclusive: 20.6 µM [activator, single point]

Q: Which Potency does the source give for OC(COC(c1ccc(Cl)cc1)c1ccc(Cl)cc1)CN1CCN(c2ccccn2)CC1 (centres undefined) here?
A: inconclusive: 25.9 µM [activator, single point]

Q: With O=[N+]([O-])c1ccc(N2CCOCC2)c([N+](=O)[O-])c1 as the compound, how does the Potency read?
A: inactive

Q: For CCC(C)(C)NC(=O)C(c1ccco1)N(C(=O)Cn1nnc2ccccc21)c1ccc2c(c1)OCO2 (centres undefined), which Potency is on record?
A: inconclusive: 35.5 µM [activator, partial curve, poor fit]

Q: Which Potency does the source give for Cc1ccc(-n2[nH]c(C)c(C=Nc3ccc(S(=O)(=O)Nc4nccs4)cc3)c2=O)cc1C here?
A: inactive

Q: Which Potency does the source give for Cc1[nH]c2ccccc2c1/C=N/Nc1ccc([N+](=O)[O-])cc1 here?
A: inactive

Q: With c1ccc(-c2csc3ncnc(N4CCc5ccccc5C4)c23)cc1 as the compound, how does the Potency read?
A: inconclusive: 25.9 µM [activator, partial curve, poor fit]

Q: With COc1ccc(/C=C2\CN(Cc3ccccc3)C/C(=C\c3ccc(OC)cc3OC)C2=O)c(OC)c1 as the compound, how does the Potency read?
A: inconclusive: 8.2 µM [activator, partial curve, poor fit]

Q: For CCCC(=O)Nc1ccccc1Sc1ncnc2scc(-c3ccccc3)c12, which Potency is on record?
A: inconclusive: 18.4 µM [activator, single point]

Q: Which Potency does the source give for O=C(COC(=O)Cc1ccc(Cl)cc1)NCc1ccco1 here?
A: inactive

Q: For COc1ccc(/C=N/NC(=O)c2cccc(O)c2)cc1Cn1nc(C)c([N+](=O)[O-])c1C, which Potency is on record?
A: inconclusive: 29.1 µM [activator, single point]

Q: With O=C1CC(C(=O)N(c2cccc(F)c2)C(C(=O)NC2CCCC2)c2ccccn2)CS1 (centres undefined) as the compound, how does the Potency read?
A: inactive

Q: Which Potency does the source give for N/C(=N\N=C\c1ccnc2ccccc12)SC1CC(=O)N(c2ccc(Br)cc2)C1=O (centres undefined) here?
A: active: 7.31 µM

Q: Which Potency does the source give for O=c1c[n+]([O-])c2ccccc2n1OCc1c(F)cccc1F here?
A: inconclusive: 23.1 µM [activator, single point]

Q: Which Potency does the source give for COc1ccccc1-c1nc2ccccc2nc1-c1ccccc1 here?
A: inconclusive: 6.51 µM [activator, single point]

Q: For O=C(c1ccc(S(=O)(=O)c2ccccc2Cl)c([N+](=O)[O-])c1)N1CCCCCC1, which Potency is on record?
A: inconclusive: 18.4 µM [activator, single point]

Q: For CC(C)(C)NC(=O)CN1CCN(C(=O)CCl)CC1, which Potency is on record?
A: inactive

Q: For N#Cc1c(N)nc2c(c1-c1ccc(Br)s1)CCCC2, which Potency is on record?
A: inactive

Q: For COc1cccc(NC2c3ccccc3C(=O)N2Cc2ccccc2Cl)c1 (centres undefined), which Potency is on record?
A: inconclusive: 5.17 µM [activator, partial curve, poor fit]

Q: With Cc1ccc(C)c(NC(=O)C(=O)NCc2ccccn2)c1 as the compound, how does the Potency read?
A: inactive

Q: Which Potency does the source give for O=C(Cc1cc(=O)[nH][nH]1)N/N=C/c1c(Cl)cccc1Cl here?
A: inactive and inconclusive: 20.6 µM [activator, single point]

Q: Which Potency does the source give for OCC1(Cc2ccc(Cl)cc2)CCN(CCCc2ccccc2)CC1 here?
A: inconclusive: 29.1 µM [activator, single point]

Q: With COc1ccc(-c2cc(C(F)(F)F)n3nc(C(=O)NCCCn4ccnc4)cc3n2)cc1 as the compound, how does the Potency read?
A: active: 12.6 µM

Q: With Nc1ccc(C(=O)N/N=C/c2cn(Cc3ccc(F)cc3)c3ccccc23)cc1 as the compound, how does the Potency read?
A: inactive

Q: For O=C(NCc1ccco1)C1CCCN1C(=O)Nc1ccc(Br)cc1 (centres undefined), which Potency is on record?
A: inconclusive: 6.51 µM [activator, single point]

Q: For O=C(CCc1nnc(Cc2c[nH]c3ccccc23)o1)NC(C1CC1)C1CC1, which Potency is on record?
A: inactive

Q: Which Potency does the source give for O=C(NCCCc1ccc(F)cc1)C1CCC(=O)N(CC2CCCCC2)C1 (centres undefined) here?
A: inconclusive: 25.9 µM [activator, single point]

Q: With CC1(C)C(=O)NCCN1C(=O)CCC(=O)O as the compound, how does the Potency read?
A: inconclusive: 0.82 µM [activator, partial curve, poor fit]

Q: For Cc1ccc(NS(=O)(=O)c2ccc(C(=O)N3CCN(c4ccccn4)CC3)cc2)cc1, which Potency is on record?
A: inconclusive: 10.3 µM [activator, partial curve]

Q: Which Potency does the source give for Cc1cccn2c(=O)c3cc(C#N)c(=NC(=O)c4cccs4)n(CC(C)C)c3nc12 here?
A: inconclusive: 2.06 µM [activator, partial curve, poor fit]

Q: Which Potency does the source give for CC1C(=O)C(C)C(c2cc(Cl)ccc2O)NC1c1cc(Cl)ccc1O (centres undefined) here?
A: inconclusive: 23.1 µM [activator, single point]

Q: With Cn1c(-c2sccc2OCc2ccc(Cl)cc2Cl)n[nH]c1=S as the compound, how does the Potency read?
A: inconclusive: 32.6 µM [activator, partial curve, poor fit]

Q: Which Potency does the source give for CCN(CC)c1ccc(/C=N/n2c(C)nc3ccccc3c2=O)cc1 here?
A: inconclusive: 29.1 µM [activator, single point]

Q: With CCOC(=O)/C(=C\c1ccc([N+](=O)[O-])cc1)C(=O)c1cc(C(C)=O)c(Nc2ccccc2)s1 as the compound, how does the Potency read?
A: active: 1.46 µM

Q: For C[C@H]1CN=C(N(C)C)N1CCCC1CCCCC1, which Potency is on record?
A: inactive

Q: For CN(Cc1ccc(OCC(O)CN(C)Cc2ccccc2)cc1)Cc1nccn1C (centres undefined), which Potency is on record?
A: inactive

Q: With COC(=O)c1cc2c(ccn2-c2ccc(F)cc2)n1Cc1ccc(OC(C)=O)cc1 as the compound, how does the Potency read?
A: inconclusive: 23.1 µM [activator, single point]

Q: With Cc1cc2[nH]c3c(c[n+](C)c4ccccc34)c2cc1C as the compound, how does the activity, positive = re-replication read?
A: inconclusive: 25.4% [activator]

Q: For CCN(C(=O)C1CCCN1S(=O)(=O)c1cccc2nsnc12)c1ccccc1 (centres undefined), which Potency is on record?
A: inconclusive: 29.1 µM [activator, partial curve, poor fit]

Q: With COc1ccc(-c2cc(-c3cccs3)nc(OC)c2C#N)cc1OC as the compound, how does the Potency read?
A: active: 6.51 µM

Q: Which Potency does the source give for CN(C)CCCN1c2ccccc2Sc2ccc(C(F)(F)F)cc21 here?
A: active: 23.1 µM

Q: Which Potency does the source give for CCCCOc1ccc(Cc2cnc(N)nc2N)cc1 here?
A: inconclusive: 20.6 µM [activator, partial curve]

Q: With Cc1cc(C)c(C(CC(=O)c2cccs2)C(C#N)C#N)c(C)c1 (centres undefined) as the compound, how does the Potency read?
A: inconclusive: 25.9 µM [activator, single point]

Q: Which Potency does the source give for CC1CN(S(=O)(=O)c2cccc(C(=O)N(CCc3ccccc3)Cc3ccccc3)c2)CC(C)O1 (centres undefined) here?
A: inconclusive: 9.2 µM [activator, partial curve]

Q: Which Potency does the source give for Cc1ccc(NC(=O)C(C)OC(=O)c2ccc(Cl)nc2)cc1S(=O)(=O)N1CCOCC1 (centres undefined) here?
A: inactive

Q: For Nc1cc(S(=O)(=O)N2CCOCC2)ccc1Oc1cccc(Br)c1, which Potency is on record?
A: inactive

Q: For Cc1ccc(-n2nnnc2Sc2nc([N+](=O)[O-])nn2C)cc1, which Potency is on record?
A: inconclusive: 16.4 µM [activator, single point]

Q: For CC(C)c1cccc(-c2ccc3c(c2)S(=O)(=O)c2cccc(C(=O)NCc4ccccc4Cl)c2C3=O)c1, which Potency is on record?
A: inconclusive: 0.651 µM [activator, full curve]

Q: With Cc1ccc(-n2cc(-c3ccccc3)c3c(NN4CCOCC4)ncnc32)cc1 as the compound, how does the Potency read?
A: inconclusive: 14.6 µM [activator, partial curve]

Q: Which Potency does the source give for CC1=C(C)C(=O)C(N2CCOCC2)=CC1=O here?
A: inactive

Q: With Cc1ccc(-c2csc3ncnc(NCCN4CCOCC4)c23)cc1 as the compound, how does the Potency read?
A: inconclusive: 7.08 µM [activator, full curve, poor fit]

Q: With Cc1cccc(C)c1NC(=S)NC(=O)c1ccccc1F as the compound, how does the Potency read?
A: inactive

Q: With O=c1[nH]c(=O)n(Cc2ccco2)c2c1C(C(F)(F)F)(C(F)(F)F)N=C(CCc1ccccc1)N2 as the compound, how does the Potency read?
A: inconclusive: 23.1 µM [activator, single point]

Q: Which Potency does the source give for COc1ccc(-c2cc(-c3cc(F)ccc3O)[nH]n2)cc1OC here?
A: inconclusive: 32.6 µM [activator, partial curve, poor fit]

Q: With CS/C(N)=N/N=C/c1ccc2c(c1)OCO2 as the compound, how does the Potency read?
A: inactive

Q: For COc1ccc(-c2cn3nc4c(nc3n2)CCCC4)cc1, which Potency is on record?
A: inactive

Q: Which Potency does the source give for O=Cc1ccc(OCc2cccc(C(F)(F)F)c2)cc1O here?
A: inconclusive: 29.1 µM [activator, single point]

Q: With O=C(CSc1nc2ccccc2c(=O)n1NC(=O)Cc1ccccc1)NCc1ccco1 as the compound, how does the Potency read?
A: inactive

Q: For Cc1ccc(NC(=O)CSc2nc(=O)n(CCCN3CCOCC3)c3c2CCCC3)cc1F, which Potency is on record?
A: inconclusive: 23.1 µM [activator, partial curve, poor fit]

Q: For CN(C)S(=O)(=O)c1ccc(C(=O)Nc2ccccc2SCCC#N)cc1, which Potency is on record?
A: inactive

Q: With Cc1ccccc1S(=O)(=O)Cc1ccc(C(=O)N2CCN(c3ccc(F)cc3)CC2)o1 as the compound, how does the Potency read?
A: inconclusive: 14.6 µM [activator, partial curve, poor fit]

Q: With CCCc1cc(=O)oc2cc(OCC(=O)NCCCn3ccnc3)c(Cl)cc12 as the compound, how does the Potency read?
A: inconclusive: 6.51 µM [activator, single point]

Q: For COc1ccc(-c2ccc(=O)n(Cc3ccccc3)n2)cc1, which Potency is on record?
A: inactive

Q: With C=CCn1c(=O)c(C#N)cc2c(=O)n3ccccc3nc21 as the compound, how does the Potency read?
A: inconclusive: 11.2 µM [activator, partial curve, poor fit]

Q: For Cc1ccccc1-c1ncc(CN2CCC(CO)(CCCc3ccccc3)CC2)cn1, which Potency is on record?
A: inconclusive: 29.1 µM [activator, single point]
